This note sets out measurements from the supplement of paper PMC8728848.

Test in all cases: glycan array binding signal (z-score within array); higher = stronger binding
What all share (settings): glycan notation: IUPAC condensed, linker removed

In assay [1] the target is Gal(b1-4)GalNAc(b1-3)[Fuc(a1-2)]Gal(b1-4)GlcNAc. The gist of the method:
(§1)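 Arrays were curated from the Consortium for Functional Glycomics database, 3228 in total, and kept only where the protein sequence was available. Binding is expressed as a within-array Z-score. This score was averaged across arrays of the same protein sequence at different concentrations or buffers and across linkers, and negative values can be read as non-binding.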

A further assay deals with Gal(b1-4)Glc. The method in brief:
as §1

For a further assay, the target named is Gal(b1-4)Glc6S. The gist of the method:
as §1

The next assay deals with Gal(b1-4)GlcNAc. The method in brief: as §1
Assay [2] deals with Gal(b1-4)GlcNAc(a1-6)Gal(b1-4)GlcNAc. The gist of the method: as §1
The target of the next assay is Gal(b1-4)GlcNAc(b1-2)Man. The method in brief:
as §1

In assay [3] the target is Gal(b1-4)GlcNAc(b1-2)Man(a1-3)Man(b1-4)GlcNAc(b1-4)GlcNAc. The method in brief:
as §1

Assay [4] concerns the target Gal(b1-4)GlcNAc(b1-2)Man(a1-3)[Gal(b1-4)GlcNAc(b1-2)Man(a1-6)]Man(b1-4)GlcNAc(b1-4)GlcNAc. The gist of the method: as §1
Assay [5] addresses Gal(b1-4)GlcNAc(b1-2)Man(a1-3)[Gal(b1-4)GlcNAc(b1-2)Man(a1-6)]Man(b1-4)GlcNAc(b1-4)[Fuc(a1-6)]GlcNAc. The method in brief:
as §1

For assay [6], the target named is Gal(b1-4)GlcNAc(b1-2)Man(a1-3)[Gal(b1-4)GlcNAc(b1-2)Man(a1-6)][Gal(b1-4)GlcNAc(b1-4)]Man(b1-4)GlcNAc(b1-4)[Fuc(a1-6)]GlcNAc. The method in brief:
as §1

Assay [7] has as its target Gal(b1-4)GlcNAc(b1-2)Man(a1-3)[Gal(b1-4)GlcNAc(b1-2)Man(a1-6)][GlcNAc(b1-4)]Man(b1-4)GlcNAc(b1-4)[Fuc(a1-6)]GlcNAc. The method in brief:
as §1

Assay [8] addresses Gal(b1-4)GlcNAc(b1-2)Man(a1-3)[GlcNAc(b1-2)Man(a1-6)]Man(b1-4)GlcNAc(b1-4)GlcNAc. The gist of the method: as §1
In assay [9] the target is Gal(b1-4)GlcNAc(b1-2)Man(a1-3)[GlcNAc(b1-4)][Gal(b1-4)GlcNAc(b1-2)Man(a1-6)]Man(b1-4)GlcNAc(b1-4)GlcNAc. The method in brief:
as §1

Assay [10] has as its target Gal(b1-4)GlcNAc(b1-2)Man(a1-3)[Man(a1-6)]Man(b1-4)GlcNAc(b1-4)GlcNAc. The method in brief:
as §1

The target of assay [11] is Gal(b1-4)GlcNAc(b1-2)Man(a1-6)Man(b1-4)GlcNAc(b1-4)GlcNAc. The method in brief: as §1
Assay [12] concerns the target Gal(b1-4)GlcNAc(b1-2)Man(a1-6)[GlcNAc(b1-2)Man(a1-3)]Man(b1-4)GlcNAc(b1-4)GlcNAc. The gist of the method:
as §1

The target in assay [13] is Gal(b1-4)GlcNAc(b1-2)Man(a1-6)[Man(a1-3)]Man(b1-4)GlcNAc(b1-4)GlcNAc. The gist of the method: as §1
In assay [14] the target is Gal(b1-4)GlcNAc(b1-2)[Gal(b1-4)GlcNAc(b1-4)]Man(a1-3)[Gal(b1-4)GlcNAc(b1-2)Man(a1-6)]Man(b1-4)GlcNAc(b1-4)GlcNAc. The method in brief:
as §1

The target in assay [15] is Gal(b1-4)GlcNAc(b1-2)[Gal(b1-4)GlcNAc(b1-4)]Man(a1-3)[Gal(b1-4)GlcNAc(b1-2)[Gal(b1-4)GlcNAc(b1-6)]Man(a1-6)]Man(b1-4)GlcNAc(b1-4)GlcNAc. The gist of the method: as §1
Assay [16] addresses Gal(b1-4)GlcNAc(b1-2)[Gal(b1-4)GlcNAc(b1-4)]Man(a1-3)[GlcNAc(b1-4)][Gal(b1-4)GlcNAc(b1-2)Man(a1-6)]Man(b1-4)GlcNAc(b1-4)GlcNAc. The method in brief: as §1
Assay [17] concerns the target Gal(b1-4)GlcNAc(b1-2)[Gal(b1-4)GlcNAc(b1-4)]Man(a1-3)[GlcNAc(b1-4)][Gal(b1-4)GlcNAc(b1-2)[Gal(b1-4)GlcNAc(b1-6)]Man(a1-6)]Man(b1-4)GlcNAc(b1-4)GlcNAc. The gist of the method: as §1
The target in assay [18] is Gal(b1-4)GlcNAc(b1-2)[Gal(b1-4)GlcNAc(b1-6)]Man(a1-6)[Gal(b1-4)GlcNAc(b1-2)Man(a1-3)]Man(b1-4)GlcNAc(b1-4)GlcNAc. The method in brief: as §1

Some of the results follow.

B1: LSL-150 (Laetiporus sulphureus), Q7Z8V1 (protein)
chain: MTDIYIPPEGLYFRLLGFASRQVIFARNSPSPDVGLSPVNDQATDQYFSLIYGTGEHAGLYAIKSKATGKVLFSRRPAEPYVGQIDGDGRYPDNWFKIEPGKTYLSKYFRLVQPSTGTALVSRTHLQPYFWNHPQTEVFDDQYFTFLFEDHHHHHH
On to B1, for which the “glycan array binding signal (z-score)” value was -0.21 in assay [1]; -0.212 in the assay with Gal(b1-4)Glc; -0.202 with Gal(b1-4)Glc6S; -0.203 with Gal(b1-4)GlcNAc; -0.207 in [2]; -0.198 with Gal(b1-4)GlcNAc(b1-2)Man. Further, the “glycan array binding signal (z-score)” value was -0.207 in assay [3]; -0.209 in assay [4]; -0.212 in assay [5]; -0.211 in [6]; -0.208 in [7]; -0.21 in [8]. Also, the “glycan array binding signal (z-score)” value in assay [9] was -0.209; in assay [10] it was -0.2; in assay [11], -0.211; in [12] it was -0.214; in [13] it was -0.209; in [14], -0.168. For the same molecule, the “glycan array binding signal (z-score)” value in [15] is -0.193; in [16], -0.195; in assay [17], -0.206; in [18], -0.198.
